Consider 30 sequences from paper PMC5700166.

The list shows a part of the results, in another mix than the full data. The list includes weakly bound sequences.

For the first experiment, the target named is T1, GST-Co-NF-kB (UniProt F1ARL5).
T1 sequence: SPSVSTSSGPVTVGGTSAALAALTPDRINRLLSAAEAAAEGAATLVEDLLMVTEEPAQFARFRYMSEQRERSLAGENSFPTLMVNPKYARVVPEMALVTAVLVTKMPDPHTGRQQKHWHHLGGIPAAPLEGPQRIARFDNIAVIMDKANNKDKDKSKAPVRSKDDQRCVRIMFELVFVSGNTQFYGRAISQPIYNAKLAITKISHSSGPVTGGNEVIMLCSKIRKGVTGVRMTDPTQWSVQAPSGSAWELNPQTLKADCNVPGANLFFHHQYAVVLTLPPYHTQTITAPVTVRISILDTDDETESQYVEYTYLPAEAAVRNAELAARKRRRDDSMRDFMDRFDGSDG
Kind of experiment: protein-binding microarray (PBM). The following applies: PBM: ~300 nM protein, 6 mM HEPES pH 7.8, 80 mM KCl, 0.5 mM EDTA, 0.5 mM EGTA, 6% glycerol, 35 ng/ul poly-dIdC, 1% milk, 1 h, room temperature; high values mean tight binding; double strand, one strand shown.
As to “CCGATTAACATCAGTGAATTCCATGATGTTAATCGGGTCTTGATTCGCTTGACGCTGCTG”, the binding signal was -0.183 z-score.
In turn, “CCGATTAACATCATCCCTCTGAATGATGTTAATCGGGTCTTGATTCGCTTGACGCTGCTG” yielded a binding signal of 0.23 z-score.
As for “CCGATTAACATCAATAAATGTACTGATGTTAATCGGGTCTTGATTCGCTTGACGCTGCTG”, the binding signal was -0.0306 z-score.
“CCGATTAACATCAGGAGAGTCCATGATGTTAATCGGGTCTTGATTCGCTTGACGCTGCTG” yielded a binding signal of -0.166 z-score.
Turning to “CCGATTAACATCATGGTGCTTAATGATGTTAATCGGGTCTTGATTCGCTTGACGCTGCTG”, the binding signal was -0.886 z-score.
Same read-out and setting: the result for “CCGATTAACATCAAATATTTTCCTGATGTTAATCGGGTCTTGATTCGCTTGACGCTGCTG” reads 0.29 z-score.
In turn, “CCGATTAACATCAGGAAAATCACTGATGTTAATCGGGTCTTGATTCGCTTGACGCTGCTG” returned a binding signal of 0.253 z-score.
“CCGATTAACATCAAAAAATTTCCTGATGTTAATCGGGTCTTGATTCGCTTGACGCTGCTG” came in with a binding signal of 0.466 z-score.
“CCGATTAACATCAGGGACTGCCCTGATGTTAATCGGGTCTTGATTCGCTTGACGCTGCTG” yielded a binding signal of 1.04 z-score.
Same read-out and setting: the same measure for “CCGATTAACATCACTGAACGCGTTGATGTTAATCGGGTCTTGATTCGCTTGACGCTGCTG”: -0.56 z-score; for “CCGATTAACATCATGTTTAGTTTTGATGTTAATCGGGTCTTGATTCGCTTGACGCTGCTG”: 0.126 z-score.
Regarding “CCGATTAACATCACGGAAAATACTGATGTTAATCGGGTCTTGATTCGCTTGACGCTGCTG”, the binding signal stood at 0.684 z-score.
The same measure, in the same setting: the same measure for “CCGATTAACATCACAGAAAATCCTGATGTTAATCGGGTCTTGATTCGCTTGACGCTGCTG”: -0.185 z-score.
“CCGATTAACATCAGGAATTGCCATGATGTTAATCGGGTCTTGATTCGCTTGACGCTGCTG” returned a binding signal of -0.263 z-score.
For “CCGATTAACATCAGGAAAAATCATGATGTTAATCGGGTCTTGATTCGCTTGACGCTGCTG”, the binding signal was 0.294 z-score.
In the case of “CCGATTAACATCATTACAGGCCGTGATGTTAATCGGGTCTTGATTCGCTTGACGCTGCTG”, the binding signal is -0.191 z-score.
In the case of “CCGATTAACATCAGCTGTTAGCCTGATGTTAATCGGGTCTTGATTCGCTTGACGCTGCTG”, the binding signal was -0.735 z-score.
Turning to “CCGATTAACATCAGAGTAATTCCTGATGTTAATCGGGTCTTGATTCGCTTGACGCTGCTG”, the binding signal worked out at 0.569 z-score.
In turn, “CCGATTAACATCAATAGCTAGTATGATGTTAATCGGGTCTTGATTCGCTTGACGCTGCTG” gave a binding signal of 0.298 z-score.
In turn, “CCGATTAACATCAAAAACTACCCTGATGTTAATCGGGTCTTGATTCGCTTGACGCTGCTG” showed a binding signal of 3.13 z-score.
“CCGATTAACATCAAAGGATTTCCTGATGTTAATCGGGTCTTGATTCGCTTGACGCTGCTG” gave a binding signal of -0.133 z-score.
The same measure, in the same setting: the same measure for “CCGATTAACATCAAGTACAACGGTGATGTTAATCGGGTCTTGATTCGCTTGACGCTGCTG”: 0.0234 z-score.
Same read-out and setting: the result for “CCGATTAACATCAAGAATTCCCCTGATGTTAATCGGGTCTTGATTCGCTTGACGCTGCTG” reads 7.33 z-score; that for “CCGATTAACATCACAAATTTTCCTGATGTTAATCGGGTCTTGATTCGCTTGACGCTGCTG”, 1.2 z-score.
As to “CCGATTAACATCAGGGAACTCCCTGATGTTAATCGGGTCTTGATTCGCTTGACGCTGCTG”, the binding signal worked out at 3.39 z-score.
Consider “CCGATTAACATCAGGGACGTCCCTGATGTTAATCGGGTCTTGATTCGCTTGACGCTGCTG”, for which the binding signal worked out at 1.08 z-score.

The target of a further experiment is T2, GST-Dm-Relish (UniProt Q94527).
T2 sequence: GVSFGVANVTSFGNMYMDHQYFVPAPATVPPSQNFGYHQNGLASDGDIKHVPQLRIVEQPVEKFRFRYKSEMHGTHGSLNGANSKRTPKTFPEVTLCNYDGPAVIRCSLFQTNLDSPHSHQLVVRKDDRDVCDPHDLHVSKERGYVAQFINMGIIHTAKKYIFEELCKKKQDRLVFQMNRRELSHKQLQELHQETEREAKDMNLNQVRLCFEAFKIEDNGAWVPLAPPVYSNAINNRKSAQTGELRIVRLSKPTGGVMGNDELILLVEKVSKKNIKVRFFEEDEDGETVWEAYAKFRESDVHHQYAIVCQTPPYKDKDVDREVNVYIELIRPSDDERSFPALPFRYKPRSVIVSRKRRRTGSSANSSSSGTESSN
Kind of experiment: protein-binding microarray (PBM). The following applies: PBM: ~300 nM protein, 6 mM HEPES pH 7.8, 80 mM KCl, 0.5 mM EDTA, 0.5 mM EGTA, 6% glycerol, 35 ng/ul poly-dIdC, 1% milk, 1 h, room temperature; high values mean tight binding; double strand, one strand shown.
The sequence “CCGATTAACATCAACACCGGCTTTGATGTTAATCGGGTCTTGATTCGCTTGACGCTGCTG” returned a binding signal of -1.27 z-score.
On to “CCGATTAACATCAAGGATATTCCTGATGTTAATCGGGTCTTGATTCGCTTGACGCTGCTG”, for which the binding signal is -0.369 z-score.
The sequence “CCGATTAACATCAACAACGGTTCTGATGTTAATCGGGTCTTGATTCGCTTGACGCTGCTG” came in with a binding signal of -0.794 z-score.
The same measure, in the same setting: the result for “CCGATTAACATCATCCCTCTGAATGATGTTAATCGGGTCTTGATTCGCTTGACGCTGCTG” reads -0.378 z-score.
“CCGATTAACATCAGGAGAGTCCATGATGTTAATCGGGTCTTGATTCGCTTGACGCTGCTG” had a binding signal of -0.555 z-score.
On to “CCGATTAACATCATGGTGCTTAATGATGTTAATCGGGTCTTGATTCGCTTGACGCTGCTG”, for which the binding signal came out at 0.0464 z-score.
On the same count and under the same terms, the same measure for “CCGATTAACATCACTGAACGCGTTGATGTTAATCGGGTCTTGATTCGCTTGACGCTGCTG”: -0.346 z-score; for “CCGATTAACATCATGTTTAGTTTTGATGTTAATCGGGTCTTGATTCGCTTGACGCTGCTG”: -0.0142 z-score; for “CCGATTAACATCAGGAAAAATCATGATGTTAATCGGGTCTTGATTCGCTTGACGCTGCTG”: 0.271 z-score.
In turn, “CCGATTAACATCATTACAGGCCGTGATGTTAATCGGGTCTTGATTCGCTTGACGCTGCTG” had a binding signal of 0.129 z-score.
Still for that read-out and setting: the result for “CCGATTAACATCAGCTGTTAGCCTGATGTTAATCGGGTCTTGATTCGCTTGACGCTGCTG” reads -1.02 z-score; that for “CCGATTAACATCAATAGCTAGTATGATGTTAATCGGGTCTTGATTCGCTTGACGCTGCTG”, -0.614 z-score.

A further experiment deals with T3, GST-Aq-NF-kB (UniProt A9Y5G7).
T3 sequence: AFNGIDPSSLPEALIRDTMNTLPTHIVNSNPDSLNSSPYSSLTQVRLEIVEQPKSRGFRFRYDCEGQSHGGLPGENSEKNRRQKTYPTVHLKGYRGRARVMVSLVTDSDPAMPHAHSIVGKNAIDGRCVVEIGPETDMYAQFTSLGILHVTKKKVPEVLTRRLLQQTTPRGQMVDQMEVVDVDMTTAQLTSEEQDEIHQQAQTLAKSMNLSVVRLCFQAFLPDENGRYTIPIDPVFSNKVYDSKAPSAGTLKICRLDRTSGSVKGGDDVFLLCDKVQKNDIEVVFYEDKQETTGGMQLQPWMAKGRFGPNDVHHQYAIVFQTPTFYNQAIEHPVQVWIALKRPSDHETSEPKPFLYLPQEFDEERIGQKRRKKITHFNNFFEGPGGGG
Kind of experiment: protein-binding microarray (PBM). As to conditions: PBM: ~300 nM protein, 6 mM HEPES pH 7.8, 80 mM KCl, 0.5 mM EDTA, 0.5 mM EGTA, 6% glycerol, 35 ng/ul poly-dIdC, 1% milk, 1 h, room temperature; Ap Aiptasia and Nv Nematostella (sea anemones) / Co Capsaspora / Aq Amphimedon (sponge) / Dm Drosophila / Hu human; RHD is the Rel homology domain; high values mean tight binding; most listed sequences are background and not binding sites; double strand, one strand shown.
Sequence “CCGATTAACATCAGGAAATTCACTGATGTTAATCGGGTCTTGATTCGCTTGACGCTGCTG” had a binding signal of 0.721 z-score.
